# Reference: the supplement of paper PMC11417369
# The list shows a part of the results.
# Tested on: PF3D7_0420300 AP2 domain 1 (GST-tagged)
# Assay: gcPBM binding intensity (ln(normalized median fluorescence intensity)); higher = stronger DNA binding
# Method in brief: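 DNA-binding domains from P. falciparum, fused to GST and produced in E. coli, were put on an Agilent 4 × 180k double-stranded probe array for 1 h in 1× PBS holding 1% milk, 0.2 mg/ml BSA, 0.5% salmon testes DNA and 0.03% Triton X-100. Probes were primer-extended, 36 bp long and drawn from intergenic genomic regions, with negative controls included. After Alexa488 anti-GST antibody detection and a 488 nm scan, binding intensity was set as the highest Masliner-normalised natural-log median intensity across replicate spots of either probe orientation.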
row,Sequence,gcPBM binding intensity (ln)
1,ATGCAACTATATATATATATTATATGTATGAATAAT [XGTACX_negctrl_site434],9.26
2,GTACAAAATTGACAAGTGCAAAAATTAAAAGCAAGA [GTGCAC_site9838],9.48
3,AAAGTATATAGGATACGTACATACATAAATAAATAA [XGTACX_site8216],9.39
4,ATATATATATAAATATGTACATATATTTATTTCTTT [XGTACX_site3784],9.21
5,GTGTGAGCACATTCGGGAGAGTTTTTTTTTTTTTTT [CACACA_negctrl_site1776],9.22
6,TATAAAAATAAGCACACACACAAATATAGATTTATT [CACACA_site6558],10.1
7,TATATTCAAAATGGTACACACAATATTTAATTGTGC [CACACA_site2631],9.37
8,TGACATATAAAATATTCACACACAAGTTATAGTTCT [CACACA_site9209],9.59
9,ACATTTTCTTATAAATGTACATATATATTATTATAT [XGTACX_site4404],9.28
10,AAAACTTTTAAAATTTTGTATTCATTCCTTCAACAA [GTGCAC_negctrl_site697],9.04
11,TTTATAATTCCATAATGTACAAATAAAATAAAAAAT [XGTACX_site663],9.27
12,AAAATTAATGTTGGTTGTACAAAAATTAAATATGGT [XGTACX_site66],9.42
13,AGGAGGATAGTTCACAGTACCCAGTAACTCTACGAG [XGTACX_site2008],8.99
14,GTACAAAGGACTATACATAGAAAAATATATATATAT [XGTACX_negctrl_site164],9.26
15,TATATATACACACACACATGCATGCCGATATATATA [TGCATGCA_site29],10.2
16,AAAAGATATTTGAATATACACACGATTTAAATTTAA [CACACA_site3865],9.39
17,AAAGATTTAATCTATACATGCAAATATATAGAAAAG [TGCATGCA_site373],9.21
18,AATAAAAATAGGAAATGTACACATATATATATATAT [XGTACX_site1853],9.23
19,AGATGCCAAGTATAAAGTACATATCAAAATGTATAT [XGTACX_site456],9.19
20,GAACAAAATTTTATATGTACATAATATTTATATATA [XGTACX_site3667],9.09
21,TTATTTTATTTTTATACACACATGTTTTAATGTTCA [CACACA_site249],9.6
22,TATAAAACACACACACATATATATATATATTTATAT [TGCATGCA_negctrl_site48],10
23,AATTTTAAATTTAATTTACACACTTTTCATAGCATT [CACACA_site9264],9.41
24,ATTTACAAAAATTTTGTATAAAGGGATTTTAAAATG [TGCATGCA_negctrl_site350],9.04
